Reference: PubChem BioAssay AID686978 (National Center for Advancing Translational Sciences (NCATS), 2013)
The campaign covered roughly 420,000 compounds. About 64,000 (15%) were called active. Inconclusive means that the source gave no clear call. Such entries were picked first, then a sample of the others. Calls come from the whole dose curve; as a rule, active = well fitted inhibition curve with a large enough effect; inconclusive = small, poorly fitted or top-dose-only effect; inactive = flat fitted curve, though single readings scatter. Potencies of inconclusive entries are left out as doubtful fits.

Experiment: qHTS for Inhibitors of human tyrosyl-DNA phosphodiesterase 1 (TDP1): qHTS in cells in absence of CPT; note: nearly all actives have a fitted effect of over 55% in size
Conditions: DT40 Tdp1-/- hTDP1 cells, no CPT, ATP luminescence, 48 h; activity change, negative = growth inhibition: at 46.2 µM (top of the series)
In short: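 Growth kinetics read by CellTiter-Glo luminescence after ≥48 hr at 37 °C. Cells: DT40 Tdp1-/- stably carrying human TDP1, 400 per well, compound exposure in the absence of CPT (DMSO vehicle).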
% is set by controls: 0 for no effect and ±100 for the full control effect; potency is the fitted concentration of half-maximal effect; tags give direction and shape of the fitted curve.

Structure (SMILES)	Potency	activity change, negative = growth inhibition
c1ccc(C2[C@H]3CN(Cc4cccnc4)[C@H](c4ccccc4)C34CC2(c2ccccc2)C4)cc1 (some centres undefined)	active: 14.6 µM	–
COC(=O)CCCNC(=O)c1ccc(OC2CCN(CCc3ccccc3)CC2)cc1	inconclusive [inhibitor, single point]	–
CSc1ccccc1NC(=O)CN(C)C(=O)c1ccc(-n2cccn2)cc1	inconclusive [inhibitor, partial curve]	–
Cc1cc(C)nc(SCC(=O)Nn2cnnc2)n1	inactive	–
COc1cccc(N(C(=O)Cc2cccs2)C(C(=O)NC2CCCC2)c2ccncc2)c1 (centres undefined)	inactive	–
O=c1ccc2ccccc2c2ccccc12	active: 2.59 µM	–
Cc1ccc2c(c1)C(=O)CC(c1ccc3c(c1)OCCO3)O2 (centres undefined)	inconclusive [inhibitor, single point]	–
CCn1cc(S(=O)(=O)Nc2cccnc2)cn1	inactive	–
O=C(COCc1cc(-c2ccc3c(c2)OCO3)on1)N1CCN(c2ccc(F)cc2)CC1	inconclusive [inhibitor, full curve, poor fit]	–
Cn1c(=O)c(C(=O)CN2CCc3ccccc32)c(N)n(Cc2ccccc2)c1=O	active: 18.4 µM	–
CC(=O)Oc1ccc(C(=O)Nc2cc(C)on2)cc1	inactive	–
C[C@H](CO)N1C[C@H](C)[C@@H](CN(C)S(C)(=O)=O)Oc2c(NC(=O)Nc3ccccc3)cccc2C1=O	inconclusive [inhibitor, partial curve, poor fit]	–
O=C(CSc1nnc(-c2ccco2)n1Cc1ccccc1)NC(=O)NCc1ccco1	inconclusive [inhibitor, partial curve]	–
COC(=O)c1ccc(NC(=O)CSc2nnc(-c3ccncc3)n2C)cc1	inactive	–
CN(CCc1ccccc1)c1cc2c(c3c1ccn3C)C1CCC2O1 (centres undefined)	inconclusive [inhibitor, single point]	–
COc1ccc(Cl)cc1NC(=O)CN1C(=O)CSc2ccc(S(=O)(=O)N3CCCC3)cc21	active: 23.1 µM	–
COC(=O)N1CCC2(CCN(Cc3ccc(C#N)cc3)CC2)CC1	inconclusive [inhibitor, full curve, poor fit]	–
CCCCN(CC)C(=O)C1CCC(CNS(=O)(=O)c2cccc3nsnc23)CC1 (centres undefined)	active: 9.2 µM	–
CC1=C(C(=O)N2CCOCC2)CC(CC(=O)NC2CC2)C(=O)N1CCC1=CCCCC1 (centres undefined)	inactive	–
CCCCNC(=O)C1(C)CCN1C(=O)c1ccc(OC)c(F)c1 (centres undefined)	inactive	–
O=C(C1CC1)N1CCc2cc(Br)cc(S(=O)(=O)NCc3ccc4c(c3)OCO4)c21	inactive	–
COc1ccccc1N1C(=O)[C@@H]2[C@H](C1=O)[C@H](C(=O)c1ccc(OC(C)=O)cc1)N1N=CC=C[C@@H]21	inactive	–
CC(=O)Nc1ccc(NCN2C(=O)[C@@H]3[C@H]4CC[C@H](C4)[C@@H]3C2=O)cc1	inactive	–
CCC(C(=O)N(C)Cc1ccccc1)n1nc(C)c2sc3ccccc3c2c1=O (centres undefined)	active: 16.4 µM	–
COc1ccc(-c2ccc(SCc3cccnc3)nn2)cc1OC	inconclusive [inhibitor, single point]	–

Structure (SMILES)	Potency	activity change, negative = growth inhibition
COc1ccc(C(=O)OCCNC(=O)c2ccncc2)cc1OC	inactive	–
COCCn1c(C)cc(C(=O)COc2ccc(N(C)S(=O)(=O)c3ccc(C)cc3)cc2)c1C	inconclusive [inhibitor, single point]	–
CCc1ccc2c(c1)C(c1cccs1)=NNC(c1cccnc1)=N2	inactive	–
O=C(CCc1nc2ccccc2s1)N1CCN(c2ccccc2)CC1	inconclusive [inhibitor, partial curve]	–
CC1CCN(c2ccc(C(=O)NCc3ccco3)cc2[N+](=O)[O-])CC1	inconclusive [inhibitor, single point]	–
C=CCn1c(SCC(C)=O)nnc1-c1cc(-c2ccccc2)sc1N	inconclusive [inhibitor, single point]	–
O=C(O)c1ccc(N/N=C/c2ccc3nccnc3c2)cc1	active: 11.6 µM	–
CCc1cc(C(=O)N(CCCOC)c2c(N)n(Cc3ccccc3)c(=O)[nH]c2=O)sc1C	inactive	–
Cc1ccc(CNC(=O)c2cc(Sc3ccc(F)cc3F)nc3ccccc23)cc1	inactive	–
O=C(CNc1ccccc1Cl)c1ccc(Br)cc1	inconclusive [inhibitor, single point]	–
COc1ccc(CCNC(=O)Nc2ccc3c(c2)c(=O)n(C)n3Cc2ccc(Cl)cc2)cc1OC	inconclusive [inhibitor, partial curve, poor fit]	–
COc1ccc(CCNC(=O)C2=C(C)C(=O)OC23CCCCC3)c(OC)c1	inconclusive [inhibitor, single point]	–
Cc1ccc(S(=O)(=O)NCc2ccccc2)cc1C(=O)N(C)CC(=O)Nc1c(Cl)cccc1Cl	inconclusive [inhibitor, single point]	–
Cc1cc(O)cc(O)c1C(=O)Cc1cscn1	inconclusive [inhibitor, single point]	–
Cc1ccc(-c2nc3ccc(C)cn3c2Cc2ccsc2)cc1	active: 14.6 µM	–
CN(C)c1ccc(-c2noc(-c3ccccc3O)n2)cc1	inconclusive [inhibitor, single point]	–
COC(=O)c1c(NC(=O)c2c(OC)cccc2OC)sc2c1C(C(=O)OC)CC2 (centres undefined)	inconclusive [inhibitor, single point]	–
C[n+]1c(-c2ccccc2)cc2c(=Cc3ccccc3)c3ccccc3n21	active: 0.517 µM	–
CCN(CC)c1ccc(CN2CCC(C(=O)NCc3ccc(C)cc3)CC2)cc1	active: 14.6 µM	–
CN(CC1CCCO1)S(=O)(=O)c1ccc(C(=O)Nc2ccc(F)cc2)cc1 (centres undefined)	inconclusive [inhibitor, single point]	–
O=C(O)C1(c2ccccc2)CCN(S(=O)(=O)c2ccc(Br)cc2)CC1	inactive	–
CCOC(=O)N1CCN(S(=O)(=O)N2CCCC(C(=O)NCc3ccccc3OC)C2)CC1 (centres undefined)	inconclusive [inhibitor, single point]	–
CCOc1ccc(/C=C/c2ccc3ccccc3n2)cc1OCC	active: 2.51 µM	–
CN(C)C(CNC(=O)CCc1nc2sc3c(c2c(=O)[nH]1)CCCC3)c1ccccc1 (centres undefined)	inconclusive [inhibitor, single point]	–
CC(C)(C)C1CCc2c(C(=O)N/N=C/c3cccs3)csc2C1 (centres undefined)	inconclusive [inhibitor, single point]	–

Structure (SMILES)	Potency	activity change, negative = growth inhibition
Cc1ccc(-c2cc(C(=O)Nc3ccc(S(=O)(=O)Nc4nccs4)cc3)c3ccccc3n2)c(C)c1	inconclusive [inhibitor, single point]	–
CNC(=O)NC(=O)C(C)OC(=O)CCCSc1nc2ccccc2s1 (centres undefined)	inactive	–
COc1ccc(NC(=O)C2CCCN(S(=O)(=O)c3ccc4[nH]c(=O)ccc4c3)C2)cc1OC (centres undefined)	inactive	–
CCSc1nc2sc3c(c2c(=O)n1-c1ccc(C)cc1)CCN(C)C3	active: 7.31 µM	–
CCCSC1=C(C#N)C(c2ccc(O)c(OC)c2)CC(=O)N1 (centres undefined)	inconclusive [inhibitor, single point]	–
CCOc1ccc(CC(=O)Nc2sc(Cc3ccccc3)cc2C(N)=O)cc1OCC	inconclusive [inhibitor, partial curve, poor fit]	–
COc1ccc([C@H]2C[C@H](O)[C@@H](n3cc(-c4ccc(F)cc4)nn3)CN2C(=O)C2CCCCC2)cc1	inactive	–
CCOC(=O)N1CCC(NC(=S)Nc2ccc3nc(N4CCN(CC)CC4)cc(C)c3c2)CC1	inconclusive [inhibitor, single point]	–
c1ccc(CSc2cc3ccccc3[nH]2)cc1	inconclusive [inhibitor, single point]	–
CC1=C([N+](=O)[O-])C(c2cccc(Br)c2)C2=C(N1)c1ccccc1C2=O (centres undefined)	active: 1.84 µM	–
O=C(Nc1ccccc1F)c1cnn2c1NC(=C1CC1)C=C2C(F)F	inactive	–
COc1ccccc1C(=O)NCCC(=O)NCC1COc2ccccc2O1 (centres undefined)	inconclusive [inhibitor, single point]	–
O=C(c1ccc(Cl)cc1)N1CCCC(c2ccccc2)=N1	inactive	–
CCOc1cc(CNCCSc2nnnn2C)cc(Cl)c1OCc1ccc(Cl)cc1	active: 13 µM	–
CN(C)c1oc(-c2ccccc2F)nc1C#N	inactive	–
Cc1cc(C(=O)Nc2nc3ccc(Cl)cc3s2)nn1C	–	inconclusive: -34.4% [inhibitor]
Cn1c(=O)n(C)c2cc(N3CCOCC3)c(NS(=O)(=O)c3ccc(Br)cc3)cc21	inconclusive [inhibitor, single point]	–
c1ccc2c(c1)CCN2CCN1CCc2ccccc21	inconclusive [inhibitor, partial curve, poor fit]	–
CCC(Oc1ccccc1)C(=O)Nc1ccccn1 (centres undefined)	inconclusive [inhibitor, single point]	–
O=C(/C=C/c1ccc(F)cc1)NCCCN1CCN(CCCNC(=O)/C=C/c2ccc(F)cc2)CC1	active: 25.9 µM	–
O=C(C[n+]1ccc2ccccc2c1)c1ccccc1	inactive	–
COc1cc(OC)cc(C(=O)N[C@@H](CCSC)c2nc3ccccc3[nH]2)c1	inconclusive [inhibitor, partial curve, poor fit]	–
O=C(NN1C(=O)C2C3C=CC(C3)C2C1=O)c1ccco1 (centres undefined)	inactive	–
COc1ccc(-c2cc(C(=O)NCCc3ccccc3)c3c(-c4ccccc4)[nH]nc3n2)cc1	inconclusive [inhibitor, single point]	–
